# According to PubChem BioAssay AID504832 (National Center for Advancing Translational Sciences (NCATS), 2011):
# Hit rate of the full screen: of about 310,000 compounds, about 18,000 (5.8%) were called active. Inconclusive results, whose numbers are uncertain, are shown with a selection of clear calls. Calls follow the shape of the dose curve; as a rule, active = well fitted inhibition curve with a large enough effect; inconclusive = small, poorly fitted or top-dose-only effect, or another doubt; inactive = no such curve, though single readings can be large or run the other way. Potencies of inconclusive entries are left out as doubtful fits. Starred links: 1 amine or outer side, 2 acyl side, 3 side chain; linkers in the order of their positions; H or OH if unused. Non-standard residues stand in square brackets, D forms with d. Residues, ends and D or L forms follow the SMILES beside them. ξ: configuration not given here. ξR = N=C(N)NCCCC(N)C(=O)O; ξF = NC(Cc1ccccc1)C(=O)O; CO = O=C([*:1])[*:2]
# Assay: Primary qHTS for delayed death inhibitors of the malarial parasite plastid, 48 hour incubation
# Conditions: P. falciparum luciferase growth in erythrocytes; series mostly up to 28.7 µM; activity change, negative = inhibition: at the top concentration
# Method in brief: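 Cell-based growth assay: transgenic P. falciparum expressing firefly luciferase, cultured in red cells within RPMI 1640 containing 0.5% w/v Albumax, 24 mM bicarbonate and gentamycin. A drop in luciferase activity indicates inhibition.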
# % is scaled to controls: 0 for no effect and ±100 for the full control effect; potency is read from the fitted curve at half-maximal effect; tags tell the direction and shape of the fitted curve.
Compound,"activity change, negative = inhibition",Potency
O=C(O)Cc1ccc(O)c(O)c1,inactive: -9.37%,
COc1ccc(NC(=O)CSc2nnc(-c3ccncc3)o2)c([N+](=O)[O-])c1,inactive: 17.3%,
Cc1ccc(Cc2cnc(NC(=O)C3CCCO3)s2)cc1 (stereo not drawn),inactive: 325%,
O=C(CC1NCCC[C@H]1O)Cn1cnc2cc(Br)c(Cl)cc2c1=O (stereo partly drawn),,active: 0.601 µM
CCOc1ccc(NC(=O)CCn2cccc2)cc1,,"inconclusive [inhibitor, full curve, poor fit]"
CCN(C(=O)COC(=O)c1cncc(Br)c1)C1CCS(=O)(=O)C1 (stereo not drawn),inactive: 11.9%,
CCCCn1c(=O)c(C(=O)NCc2ccccc2Cl)c(O)c2ccccc21,,"inconclusive [inhibitor, single point]"
Cc1c(C(=O)N2CCCC2)sc(NC(=O)c2cccc(Cl)c2)c1C#N,,"inconclusive [inhibitor, single point]"
CCN1C(=O)C(CC(=O)N2CCN(C(c3ccccc3)c3ccccc3)CC2)N(CC)C1=O (stereo not drawn),,active: 11.7 µM
CC(C)c1ccc(OCc2nc(-c3ccccn3)no2)c(Br)c1,inactive: 164%,
CCCCN(CC(=O)NC1CC1)S(=O)(=O)c1ccc(OCC)cc1,,"inconclusive [inhibitor, partial curve, poor fit]"
Cc1cccc(C(=O)Nc2cc(OCc3cccc(F)c3)c(Cl)cc2Cl)c1,inactive: 14%,
CCCc1nc2c(C)cc(-c3nc4ccccc4n3C)cc2n1Cc1ccc(-c2ccccc2C(=O)O)cc1,,active: 3.79 µM
CC(Oc1ccc2ccc(=O)oc2c1)C(=O)c1ccccc1 (stereo not drawn),inactive: 22.4%,
COc1cc2c(cc1NC(=O)Nc1ccc(F)cc1)oc1ccccc12,inactive: -56.1%,
O=S(=O)(c1ccc(-c2csc(Nc3ccc(Br)cc3)n2)cc1)N1CCCC1,,"inconclusive [inhibitor, single point]"
O=c1[nH]c(C2CCCN(S(=O)(=O)c3ccccc3)C2)nc2c1nnn2Cc1ccccc1F (stereo not drawn),,active: 10.4 µM
CN(C)CCCN(C(=O)c1ccc(S(=O)(=O)N(C)C)cc1)c1nc2cc3c(cc2s1)OCO3,,"inconclusive [inhibitor, single point]"
CC(C)[C@H](NC(=O)[C@H](CCCN=C(N)N)NC(=O)NC(Cc1ccccc1)C(=O)O)C(=O)NC(C=O)CCCN=C(N)N (stereo partly drawn) ({ξF-CO}-Arg-Val-[ξR]-aldehyde),,"inconclusive [inhibitor, single point]"
C=CCn1c(SCC(=O)c2[nH]c(C)c(C(=O)OC)c2C)nc2scc(-c3ccc(OC)c(OC)c3)c2c1=O,,"inconclusive [inhibitor, partial curve, poor fit]"
CCCn1c(N)c(C(=O)CN2CCN(S(=O)(=O)c3cccs3)CC2)c(=O)[nH]c1=O,inactive: 2.01%,
COc1ccc(-c2noc(CCCC(=O)NCCc3ccccc3)n2)cc1OC,,"inconclusive [inhibitor, single point]"

Compound,"activity change, negative = inhibition",Potency
Cc1ccc(S(=O)(=O)N2CCCCC2)cc1NC(=O)c1ccc(Br)o1,,active: 7.38 µM
CCOc1ccc(/C=C/C(=O)Oc2ccccc2)cc1,,"inconclusive [inhibitor, single point]"
CCCCCC(=O)NNC1=NCC(Cc2ccccc2)S1 (stereo not drawn),,"inconclusive [inhibitor, full curve, poor fit]"
O=C(NCCc1ccccc1)C(=O)NCC1OCCN1S(=O)(=O)c1ccc([N+](=O)[O-])cc1 (stereo not drawn),,"inconclusive [inhibitor, partial curve, poor fit]"
Cc1noc(C)c1COc1cccc(C(=O)OCCOc2ccc(F)cc2)c1,,"inconclusive [inhibitor, partial curve, poor fit]"
COc1ccc(N(CC(=O)NC2CC3CCC2C3)S(=O)(=O)c2ccccc2)cc1Cl (stereo not drawn),,"inconclusive [inhibitor, partial curve, poor fit]"
CC(C)(NC(=O)NC(CO)c1ccccc1)c1cccc(C(C)(C)NC(=O)NC(CO)c2ccccc2)c1 (stereo not drawn),,"inconclusive [inhibitor, single point]"
CN1C(=O)c2ccc(C(=O)Nc3cccnc3)cc2C1=O,inactive: 14.9%,
COc1ccc(Cc2nnc(Nc3ccc(C)cc3)o2)cc1OC,,active: 2.94 µM
COc1ccc(C(=O)NCCn2cc(SCC(=O)NCC3CCCO3)c3ccccc32)cc1 (stereo not drawn),,"inconclusive [inhibitor, single point]"
Cc1nc2ccccc2c2oc(C(=O)N3CCC(N4CCCCC4)CC3)cc12,,"inconclusive [inhibitor, full curve, poor fit]"
COc1ccc(CNC(=S)Nc2ccccc2F)cc1,inactive: 10.4%,
Cc1cccc2c(N)c3c(nc12)CCCC3 (tested in a mixture with another compound),,active: 4.65 µM
O=C1CCC(C(=O)OC(C(=O)Nc2ccc([N+](=O)[O-])cc2Br)c2ccccc2)=NN1 (stereo not drawn),,"inconclusive [inhibitor, single point]"
COc1ccc(S(=O)(=O)N(C)CC(=O)Nc2ccccc2SC)cc1,,"inconclusive [inhibitor, partial curve, poor fit]"
CCOC(=O)[C@@H]1[C@H]2COc3cc(OC)ccc3[C@H]2N2C(=O)N(c3ccc(F)cc3)C(=O)[C@@]12C,,"inconclusive [inhibitor, single point]"
COc1cc(C(=O)Nc2ccccc2C(=O)Nc2ccccn2)cc(OC)c1OC,,"inconclusive [inhibitor, single point]"
COc1ccc(C(=O)NC2CCSc3ccccc32)cc1F (stereo not drawn),,"inconclusive [inhibitor, partial curve, poor fit]"
COc1ccc(C(=O)NCC(c2ccco2)N(C)C)cc1S(=O)(=O)NCc1ccc(Cl)cc1 (stereo not drawn),,"inconclusive [inhibitor, single point]"
O=C(CCS(=O)(=O)c1ccccc1)Nc1nncs1,,"inconclusive [inhibitor, single point]"
O=c1[nH]c(/C=C/c2ccc(Cl)cc2Cl)c([N+](=O)[O-])c(=O)[nH]1,inactive: 195%,
